# Biological target: T1, flag-tagged ZIL fusion protein (Usp45 signal, flag tag, IL-6-binding affibody ZIL, AcmA anchor), displayed on …
# T1 construct: surmised from the DNA; also called ZIL-flag; ZIL-flag-displaying L. lactis; not shown: Usp45 signal peptide, N-terminal, cleaved; AcmA C-terminal domain (acmA3b anchor), C-terminal, kept
# Assay: flow cytometry on cells; 8 × 10^7 CFU of intact L. lactis incubated overnight at 4 °C with 1 µg/ml biotin-labeled human IL-6 in 500 µL TBS; detected with mouse anti-biotin antibody and Alexa Fluor 488 secondary antibody; geometric MFI
# Conditions: one partner purified
binder,measurement,value
"recombinant human biotin-labeled IL-6 (ligand, biotin (site not stated), interleukin-6, human, recombinant, biotin-labeled (Immunotools); also called biotinylated IL-6; IL-6-biotin; source: bought: Immunotools) not shown",fold mean fluorescence intensity over empty plasmid control cells,80 fold

# From paper PMC9287920, “Targeting IL-6 by engineered Lactococcus lactis via surface-displayed affibody” (Microbial Cell Factories, 2022)
